Test results as given in the supplement of paper PMC10126150.
Sequences with one replicate were seen in a single cluster, so their values are uncertain.

Test system: ATP
Assay: switch fluorescence ratio, 500 uM ATP over buffer (Cy3 cluster intensity, sum of 5 cycles each) (fold (ratio)); higher = stronger signal-on switching upon ATP binding; sequences stand for … in TCGTCGGCAGCGTCAGATGTGTATAAGAGACAGTTTTTTTTTTTTTTTTTTTTTTTTT…TC
Conditions: aptamer strand: ATP DNA aptamer (quencher-CACCTGGGGGAGTATTGCGGAGGAAGG + anchor), 100 nM annealed; ATP concentration: 500 uM; one replicate
Method in brief: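 Per cluster, summed Cy3 intensity from the target cycles was divided by that from the buffer cycles to give the fluorescence ratio, then averaged per switch-domain sequence. Clusters outside 100-1000 RFU were excluded. The Cy3-labelled switching-strand clusters, on a modified Illumina MiSeq flow-cell, were annealed to 100 nM quencher-labelled ATP aptamer and imaged in selection buffer, then after 15 min with 500 uM ATP at 22 °C, for five cycles with NaOH stripping and re-annealing between them.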
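Note: ATP exposure 15 min at 22 °C before imaging.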

| Sequence | switch fluorescence ratio |
| --- | --- |
| TTTGAGGTTC | 1.01 |
| AGGTGGGTAT | 1.01 |
| CCGGCGTCAT | 1.83 |
| ACACATTTTA | 1.06 |
| ATTGCTGAGT | 0.966 |
| CGAATGAGTA | 0.976 |
| ATCCTTGGTT | 0.989 |
| CTCCGGGGTG | 2.59 |
| CATGTACTGA | 1 |
| ATCACGACCG | 1.11 |
| ACGTGGAGTA | 1 |
| TTTTGGCTG | 0.965 |
| TATGTCGTTC | 0.966 |
| AAGGAGTGGT | 0.983 |
| TCCTTGGCGA | 1.01 |
| AGGGCCCAAT | 1 |
| AATCATCCAT | 1.05 |
| TATATCGACA | 0.974 |
| TTCAGTCTAG | 1.06 |
| AGACGGACAT | 1.06 |
| TCATCTCTGT | 1 |
| GGGACCAGCC | 1.02 |
| CTACCGTCCT | 1.11 |

| Sequence | switch fluorescence ratio |
| --- | --- |
| TTTCCAGCGC | 0.972 |
| TACGGCTGGA | 0.989 |
| GTGACTATCA | 0.994 |
| TCTCTGTTGT | 1.02 |
| GGAGCCTCGA | 0.97 |
| GATCGCCCCA | 0.982 |
| TGACAGACTT | 1.06 |
| GTACCGGAAA | 1.09 |
| GGTTTTATCC | 1.06 |
| TATATGTTCC | 1.02 |
| GTGGCCCCCA | 1.01 |
| CACGGGTCTA | 1.02 |
| GCGCTGCGAC | 1.29 |
| GCGGGTACGT | 0.988 |
| GCTTGTACTA | 1.01 |
| CTGGACAGGT | 0.966 |
| TGCGTCATGC | 0.992 |
| AACGTCGGGC | 0.979 |
| CGGTGAGCCA | 0.977 |
| TCGCCGGGGC | 1.01 |
| CGTAATGTTC | 1.22 |
| GGGTACGGGC | 1.05 |
| CGAGCCGGAT | 1.07 |

| Sequence | switch fluorescence ratio |
| --- | --- |
| GCGTTAGGAC | 1.02 |
| GGTGTTGTGT | 0.992 |
| GTGTTTCTGG | 0.99 |
| GATCGGTTAG | 1.18 |
| TGCTGCTAAG | 0.984 |
| CAATGGTCGC | 0.978 |
| CGTTAATGTG | 1.02 |
| GGTCGCACTG | 1 |
| ACTGAGTGCT | 1.07 |
| TAGAAGTTCC | 1.1 |
| ATGTAGATGG | 0.996 |
| GCAATTGATC | 1.33 |
| TCGTAGTGAC | 1.29 |
| CTGCTGTGTG | 1.02 |
| TTGATGTGGC | 1.03 |
| TTAGAGTTTT | 0.97 |
| ATAGGGTTCT | 1.01 |
| GGCAATAGTT | 1.37 |
| CACCTGTAGT | 1.02 |
| TATGCACTGG | 1.06 |
| AGGACCTCAT | 1.01 |
| GGGCTGGGCC | 0.952 |
| TGAACATGGT | 1.01 |

| Sequence | switch fluorescence ratio |
| --- | --- |
| CTCATTTCGT | 0.987 |
| CGTGATTAT | 1.02 |
| ACTGTGTGCG | 1.02 |
| TCGGAGTACA | 1.18 |
| GCCGCTGAGT | 0.99 |
| ATTTGAAAAG | 1.04 |
| TGGGTCCATG | 1.01 |
| TCTTGTAGTA | 0.982 |
| TGTTCTAATA | 1.05 |
| CGGAAATAAC | 1.09 |
| TGGCGGAAGT | 0.972 |
| CTTTGTTTCT | 1.02 |
| GTGCCTTACC | 1.02 |
| CACCTAGCT | 1.09 |
| ACTTGCAGAA | 1.01 |
| AAGGCTTGAG | 0.962 |
| CAAGGCGAAC | 1.13 |
| GACGTCCCCT | 1.02 |
| GATAAAGGCG | 1.03 |
| ATAAGCTCTT | 0.979 |
| TATAGGAGTG | 0.921 |
| CGCCACCTGA | 1.07 |
| GTATTAAAA | 1.03 |

| Sequence | switch fluorescence ratio |
| --- | --- |
| CGTCTTTAGC | 0.958 |
| CCGCCAGTAG | 4.36 |
| CTTGTGCAAT | 5.77 |
| CCGTGGCGTA | 1.06 |
| TATATTTTGA | 0.996 |
| CTGCTGTGTT | 1 |
| TGCGGGCTTA | 1.06 |
| AATTCAGACC | 1.02 |
| AGGTTTGCTG | 0.862 |
| ACGATCCCGC | 1.52 |
| GGCGTTCGAC | 1.02 |
| AGGCTTCAAG | 1.04 |
| CGTACCGTAG | 1.07 |
| ATGGCTTCGA | 1.01 |
| GATATCTAGT | 1.01 |
| CTCATGGAAG | 0.974 |
| AAGTCAGTTT | 1.01 |
| GAGATCAGCT | 1.03 |
| TCGGGGGCTC | 1.03 |
| GCGGCCGAGC | 1.01 |
| CAGGGCCTAT | 0.998 |
| GCCGAGTAGG | 1 |
| GCCTCGCGAG | 1.01 |

| Sequence | switch fluorescence ratio |
| --- | --- |
| TGAGTACCGA | 1.02 |
| CGTGACGGGA | 0.986 |
| TTACGAGTTA | 1.02 |
| AGTATTTCGG | 0.936 |
| AGCTGTTGAC | 1.02 |
| CCTCACCGTC | 1.36 |
| TCTGCTGCTG | 0.989 |
| CGTCTGCTTA | 1.26 |
| ATATTTGAAG | 1.01 |
| CCGGTACCTA | 1.1 |
| TGATTAATGC | 1.08 |
| GTATGATTTT | 1.01 |
| CCATTAGTGC | 1.02 |
| ACGCCATGAC | 2.28 |
| GTTGTGAATG | 1.43 |
| CTGACTGCTC | 2.04 |
| TTTCCGTAGG | 0.976 |
| CTTTAAGCAT | 1.08 |
| GCCGGAGTAA | 3 |
| ATATTACGTT | 1.07 |
| GACTAGTGGA | 0.967 |
| GAACACTTAG | 1.07 |
| CTTTGAGTGC | 0.958 |

| Sequence | switch fluorescence ratio |
| --- | --- |
| GGCCGCATAA | 3.87 |
| CAATAGGGCC | 1.01 |
| TGGTAGGG | 1.01 |
| CTTGTTTACA | 0.953 |
| TTAGTCCGGC | 1.25 |
| ATAAATGGCG | 1 |
| CTAAGATAA | 1.01 |
| AGCCGCGTTT | 1.02 |
| CCCAGCGCTG | 0.992 |
| ACTAGGATAC | 1.2 |
| TTGCGATGCT | 1.24 |
| TGCGATATAA | 1.01 |
| AACTTTTTG | 0.974 |
| AAGCCGACAC | 1.15 |
| CAATTTACGA | 1 |
| CTAATGGTCG | 0.972 |
| TCATCAGGCG | 0.998 |
| CAGGGGTTCG | 0.962 |
| TAGTCAGTCC | 1 |
